Molecules are shown by their SMILES. About 200 (0.44%) of roughly 45,000 compounds were called active. Roughly 7% stayed inconclusive and do not appear here. Calls follow the shape of the dose curve; as a rule, active = well fitted activation curve with a large enough effect; inconclusive = small, poorly fitted or top-dose-only effect; inactive = no such curve, though single readings can be large or run the other way. This is one part of the list.

The nature of the assay: qHTS of TDP-43 Inhibitors: NCGC Sytravon Library Screen. Also: 0% is about no effect; nearly all actives have a fitted effect of over 55% in size. The following applies: yeast TDP-43 toxicity rescue, BacTiter-Glo growth, 24 h; series mostly up to 46.1 µM; growth rescue (activation): at the top concentration. In a few lines: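 TDP-43-expressing yeast, pregrown in raffinose, seeded at OD600 0.02 in galactose medium with compound for 24 hr at 30 deg C. Growth read by BacTiter-Glo luminescence, so rescue of toxicity appears as activation.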
For orientation: Quantitative high-throughput screening tests each substance at several concentrations.
For the molecule `COc1ccccc1C(=O)N1CCN(C(=O)Cc2ccccc2)CC1`, the “growth rescue (activation)” value was inactive: 4.72%.

Turning to `O=C(CCc1ccccc1)N1CCN(c2ccc(F)cc2)CC1`, the “growth rescue (activation)” value is inactive: 7.56%.

Turning to `Nc1nc(SCC(=O)c2c(N)n(Cc3ccccc3)c(=O)[nH]c2=O)n[nH]1`, the “growth rescue (activation)” value was inactive: 24.6%.

Turning to `COc1cc2cc(C#N)c(SCC(=O)Nc3cc(C)on3)nc2cc1OC`, the “growth rescue (activation)” value is inactive: -12.6%.

With `CCOc1ccc(N2CC(C(=O)NC3CCSC3=O)CC2=O)cc1` (stereo unspecified), the “growth rescue (activation)” value was inactive: 11%.

Take `Cc1ccc(N2CC(C(=O)Nc3ccc(Cl)cc3Cl)CC2=O)cc1` (stereo unspecified): the “growth rescue (activation)” value is inactive: 9.15%.

As to `N#CCN1CCN(CC(=O)c2ccc(Br)cc2)CC1`, the “growth rescue (activation)” value is inactive: -3.53%.

As for `O=c1oc2cc(O)c(Cl)cc2c2ccccc12`, the “growth rescue (activation)” value was inactive: 28.1%.

`COc1ccc(/C=N/N2CCN(C3c4ccccc4-c4ccccc43)CC2)cc1O`: the “growth rescue (activation)” value is inactive: 13%.

Take `CCCCCNC(=O)c1ccc2c(=O)n(CCCOCC)c(=S)[nH]c2c1`: the “growth rescue (activation)” value was inactive: 17.5%.

For the molecule `COc1ccc(-c2ccc(C(=O)Nc3ccc(C(C)C)cc3)c3occc23)c(C)c1`, the “growth rescue (activation)” value was inactive: 3.21%.

As to `CC1(C)CC(=O)C=C(Nc2ccc(C(=O)O)c(O)c2)C1`, the “growth rescue (activation)” value was inactive: -9.85%.

Consider `COc1cc(S(=O)(=O)NC2CCCC2)ccc1-n1cnnn1`, for which the “growth rescue (activation)” value is inactive: -0.716%.

On to `O=S(=O)(c1ccc(Cl)cc1)c1cnc2ccccc2n1`, for which the “growth rescue (activation)” value is inactive: -3.54%.

As to `COc1cc(Cl)ccc1OC1(C)CCN(Cc2cccn2-c2nccs2)C1` (stereo unspecified), the “growth rescue (activation)” value is inactive: 14.4%.

For the molecule `NC(=O)c1sc2nc(-c3cccnc3)ccc2c1N`, the “growth rescue (activation)” value is inactive: -9.55%.

In the case of `COc1ccc2nc(NC(=O)Nc3ccccc3OC)sc2c1`, the “growth rescue (activation)” value was inactive: -8.61%.

For the molecule `O=C(O)CCC(=O)N1CCN(Cc2ccc3c(c2)OCO3)CC1`, the “growth rescue (activation)” value is inactive: 9.26%.

Regarding `COc1cccc(NC(=O)C2CCCN(c3nnc(-n4c(C)ccc4C)s3)C2)c1` (stereo unspecified), the “growth rescue (activation)” value is inactive: 1.49%.

Consider `NC(=O)c1ccsc1NC(=O)CCS(=O)(=O)c1ccc(Cl)cc1`, for which the “growth rescue (activation)” value was inactive: 38.4%.

As to `Cn1ncc2c(NNC(=O)c3ccccc3Cl)ncnc21`, the “growth rescue (activation)” value is inactive: 2.48%.

For the molecule `Cc1ccc(C(=O)N2CCN(Cc3ccc4c(c3)OCO4)CC2)cc1[N+](=O)[O-]`, the “growth rescue (activation)” value is inactive: 12.8%.

Regarding `COc1ccc(CNc2nc(-c3ccco3)nn2C(=O)c2ccccc2Cl)cc1`, the “growth rescue (activation)” value was inactive: 13.9%.

`CCCN1C(=O)c2ccccc2NC1c1ccc(Br)cc1` (stereo unspecified): the “growth rescue (activation)” value is inactive: -11.2%.

With `COc1cc(OC)cc(-c2nnc(SCC(=O)Nc3cccc(C(=O)O)c3)s2)c1`, the “growth rescue (activation)” value was inactive: 4.75%.

In the case of `CCOC(=O)C1CCN(C(=O)c2ccc(CNS(=O)(=O)c3ccc(C)cc3)cc2)CC1`, the “growth rescue (activation)” value was inactive: 1.72%.

For the molecule `COc1cccc(C(=O)N2CCC(C(=O)N3CCN(C)CC3)CC2)c1`, the “growth rescue (activation)” value is inactive: -6.64%.

Turning to `COc1ccc(/C=C2\N=C(c3ccccc3)N(c3ccc(C(=O)O)cc3)C2=O)cc1OC`, the “growth rescue (activation)” value is inactive: 28.9%.

For the molecule `N#CCOc1ccccc1/C=C/c1nc2ccccc2c(=O)[nH]1`, the “growth rescue (activation)” value was inactive: -23.1%.

`COCCNC(=O)Cc1ccc(F)cc1`: the “growth rescue (activation)” value was inactive: 6.43%.

Consider `C=CCNCC(O)COc1ccc(C(C)=O)cc1OC` (stereo unspecified), for which the “growth rescue (activation)” value was inactive: -7.15%.

Turning to `COc1ccc(NC(=O)/C(C#N)=C/c2ccc(Sc3nncn3C)c([N+](=O)[O-])c2)cc1`, the “growth rescue (activation)” value was inactive: -17.8%.

As to `CCc1c(C)sc(NC(NC(C)=O)(C(=O)OC)C(F)(F)F)c1C#N` (stereo unspecified), the “growth rescue (activation)” value was inactive: -12.2%.

For `Cc1ccc(S(=O)(=O)NC(C)c2ccccc2)cc1[N+](=O)[O-]` (stereo unspecified), the “growth rescue (activation)” value is inactive: 6.68%.

In the case of `O=C(COc1ccc(/C=N/NC(=O)c2ccccc2Br)cc1)Nc1ccccc1`, the “growth rescue (activation)” value is inactive: 4.49%.

Consider `COc1cccc(NC(=O)Cc2nnc(SCC(=O)NC3=NCCS3)n2C)c1`, for which the “growth rescue (activation)” value is inactive: -16.4%.

As for `CCN(C(=O)COC(=O)c1ccccc1NC(=O)c1ccco1)C1CCS(=O)(=O)C1` (stereo unspecified), the “growth rescue (activation)” value is inactive: -6.59%.

`Cc1cc(N/N=C/c2ccc(Cl)cc2)nc(NCc2ccccc2)n1`: the “growth rescue (activation)” value was inactive: 15.5%.

Regarding `Cc1cccc(C(=O)Nc2cccnc2Cl)c1`, the “growth rescue (activation)” value is inactive: 12.4%.

On to `COc1ncc(-c2cccc3nccn23)c(OC)n1`, for which the “growth rescue (activation)” value was inactive: -2.15%.

Take `CNC(=O)c1cccc(NC(=O)C(C)c2ccc3cc(OC)ccc3c2)c1` (stereo unspecified): the “growth rescue (activation)” value is inactive: 14.4%.

As to `CN(C(=O)COC(=O)c1ccc2ccccc2n1)C1CCCCC1`, the “growth rescue (activation)” value was inactive: -2.96%.

As for `c1ccc(CNc2c3c(nc4ncnn24)CCC3)cc1`, the “growth rescue (activation)” value was inactive: 17.9%.

On to `CCCCC(=O)Nc1ccc(NC(=S)NC(=O)CC)cc1OC`, for which the “growth rescue (activation)” value was inactive: -10.6%.

As to `NC(=O)C1CCN(C(=O)c2ccc3c(c2)S(=O)(=O)c2ccccc2C3=O)CC1`, the “growth rescue (activation)” value is inactive: 3.13%.

Regarding `CCCn1c(O)c(CN2CCCCC2)c(C)c(C#N)c1=O`, the “growth rescue (activation)” value is inactive: 8.08%.

For `CCC1CCCCN1S(=O)(=O)c1ccc(NC(=O)c2ccncc2)cc1` (stereo unspecified), the “growth rescue (activation)” value was inactive: 13.4%.

In the case of `CCN(CC)C(CNC(=O)CSc1nnnn1-c1c(C)cccc1C)c1ccco1` (stereo unspecified), the “growth rescue (activation)” value is inactive: 24.4%.

In the case of `NS(=O)(=O)c1ccc(NC(=O)C(=O)NCCC(=O)O)cc1`, the “growth rescue (activation)” value was inactive: 6.85%.

Consider `Cc1cccc(C(=O)NC2CCN(C(=O)Nc3ccc(F)cc3)CC2)c1`, for which the “growth rescue (activation)” value was inactive: -7.3%.

Turning to `O=C(Nc1nc(-c2ccc(Cl)cc2)cs1)NC1CCCCC1`, the “growth rescue (activation)” value was inactive: -0.906%.

With `FC(F)(F)c1cnc(NNC(=S)Nc2ccc(Cl)cc2)c(Cl)c1`, the “growth rescue (activation)” value was inactive: 22.5%.

As for `NC(=O)C1CCN(C(=O)CNC(=O)c2ccc(F)cc2)CC1`, the “growth rescue (activation)” value is inactive: 4.46%.

Take `COc1cc(CC(=O)N/N=C/c2ccc([N+](=O)[O-])cc2)c([N+](=O)[O-])cc1OC`: the “growth rescue (activation)” value was inactive: -32%.

As for `O=C(OCN1C(=O)c2ccccc2C1=O)c1cccnc1SC(F)F`, the “growth rescue (activation)” value was inactive: 24.3%.

With `COc1cc(C)c(Br)cc1S(=O)(=O)NCCN1CCOCC1`, the “growth rescue (activation)” value was inactive: 3.1%.

For the molecule `Fc1ccccc1CSc1ncnc2sc3c(c12)CCCC3`, the “growth rescue (activation)” value is inactive: 9.6%.

As for `COc1ccc(-c2[nH]nc3nc(-c4cc(OC)c(OC)c(OC)c4)cc(C(=O)O)c23)cc1`, the “growth rescue (activation)” value is inactive: 12.2%.

`O=C1C(Cc2ccc(F)cc2)SC(=Nc2ccccc2)N1c1ccccc1` (stereo unspecified): the “growth rescue (activation)” value is inactive: 2.28%.

On to `O=c1c2ccccc2nc(CSc2nnnn2-c2ccccc2)n1-c1ccccc1`, for which the “growth rescue (activation)” value is inactive: 15.1%.

For the molecule `COc1ccc(Cl)cc1-n1c(C)ccc1C`, the “growth rescue (activation)” value is inactive: -1.21%.

Regarding `CC1NC(=S)N(Cc2ccccc2)C1=O` (stereo unspecified), the “growth rescue (activation)” value was inactive: -7.19%.

For `CCc1nc2c(OCc3ccc(C(F)(F)F)cc3)cccn2c1N(C)C(=O)C1CC1`, the “growth rescue (activation)” value was inactive: 3.27%.

Turning to `COc1cc(/C=C(\C#N)C(=O)NCC2CCCO2)ccc1OCC(=O)O` (stereo unspecified), the “growth rescue (activation)” value is inactive: -17.7%.

`C#CCN1C(=O)C(O)(CC(=O)/C=C/C=C/c2ccccc2)c2ccccc21` (stereo unspecified): the “growth rescue (activation)” value is inactive: 11.9%.

As for `CCN=C1SC(CC(=O)NC(C)c2ccccc2)C(=O)N1CC` (stereo unspecified), the “growth rescue (activation)” value is inactive: 6.71%.

Take `CCOc1ccc(/C=C/C(=O)Nc2ccccc2C(F)(F)F)cc1`: the “growth rescue (activation)” value was inactive: 25%.

Turning to `Cc1cccn2c(=O)c(C=O)c(Nc3ccccc3)nc12`, the “growth rescue (activation)” value was inactive: -5.21%.

For `Cc1ccc(CNC(=O)c2cccnc2Cl)cc1`, the “growth rescue (activation)” value was inactive: 8.36%.

Consider `COC(=O)C(C)Oc1ccc(=O)[nH]n1` (stereo unspecified), for which the “growth rescue (activation)” value is inactive: 8.95%.

Regarding `COc1cccc(C(C(=O)NC(C)(C)C)N(Cc2ccco2)C(=O)CCC(=O)Nc2cc(C)on2)c1OC` (stereo unspecified), the “growth rescue (activation)” value was inactive: -19.9%.

The values above are taken from PubChem BioAssay AID1347073 (National Center for Advancing Translational Sciences (NCATS), 2019).
